# From PubChem BioAssay AID1346428 (National Center for Advancing Translational Sciences (NCATS), 2018)
# Where “and” joins values, the source holds several entries; their conditions need not be identical. Equal values may be shown once. In all, about 48,000 compounds went through this assay and about 1,200 (2.5%) were called active. Not shown: some 2% with an inconclusive outcome.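 The calls were made as follows: active = activation of at least 60% and not above a set upper limit (about 1 call in 100 departs from these limits); inconclusive = activation of 40% to 60%, or above that upper limit; inactive = activation under 40%.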 Some of the results follow.
# Target: Probable G-protein coupled receptor 32 (Homo sapiens) (UniProt O75388)
# UniProt O75388, sequence (O75388 whole entry, looked up): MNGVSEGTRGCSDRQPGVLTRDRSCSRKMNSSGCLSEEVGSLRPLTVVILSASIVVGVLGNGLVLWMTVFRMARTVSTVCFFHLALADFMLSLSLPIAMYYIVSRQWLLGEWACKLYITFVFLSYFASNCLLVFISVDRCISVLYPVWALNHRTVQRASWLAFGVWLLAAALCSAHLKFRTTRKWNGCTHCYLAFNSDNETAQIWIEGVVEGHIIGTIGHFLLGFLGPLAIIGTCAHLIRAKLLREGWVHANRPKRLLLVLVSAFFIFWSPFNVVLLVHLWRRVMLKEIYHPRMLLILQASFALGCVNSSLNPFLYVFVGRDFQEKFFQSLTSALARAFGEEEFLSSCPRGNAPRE
# Assay: qHTS for Agonists of Human Resolvin D1 Receptor DRV1; also: 0% is about no effect
# Details: CHO-K1 GPR32 beta-arrestin PathHunter luminescence, 90 min; at 76.9 µM; hits give high values; zero percent set by DMSO-only wells
# How it was run: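 Beta-arrestin recruitment read-out: luminescence from complemented beta-Gal in CHO-K1 GPR32 PathHunter cells, measured 1 h after detection reagent at ambient temperature following 90 min compound exposure at 37 °C; DMSO served as basal (EC0) control.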
row,SMILES,activation
1,CCc1ccc(NC(=O)CSc2nc(C)c(C(=O)Nc3ccccc3)c(-c3ccc(OC)c(OC)c3)c2C#N)cc1,inactive: -12.9%
2,CCOc1ccc(CNC(=O)CCc2c(C)nn(-c3ccc(N4CCCCC4)nn3)c2C)cc1,inactive: -18.4%
3,CSc1ccc(CCNC(=O)c2cc(C)nc3c2c(C)nn3-c2cccc(F)c2)cc1,inactive: -5.43%
4,CC(C)(C)C(=O)CSc1nc2ccsc2c(=O)n1Cc1ccccc1Cl,inactive: -28.1%
5,CCOc1ccccc1NC(=O)CSc1nc2c(oc3ccccc32)c(=O)n1-c1ccc(F)cc1,inactive: -42.1%
6,COc1cccc(CSc2nc3n(n2)C(c2ccc(C(=O)O)cc2)C(C(=O)Nc2ccccc2)=C(C)N3)c1 (centres undefined),inactive: 17.4%
7,O=C(OCc1cc(=O)n2nc(-c3cccs3)sc2n1)c1ccccc1Cl,inactive: 8.76%
8,CNc1ncnc2c1ncn2[C@H]1C[C@H](OP(=O)(O)O)[C@@H](COP(=O)(O)O)O1,inactive: 1.93%
9,COc1ccccc1N1CCN(c2ccc(=O)n(CC(=O)NCc3ccc(F)cc3)n2)CC1,inactive: 20.9%
10,COc1ccc(NC(=O)c2cc3cc(C)ccc3[nH]2)cc1,inactive: -5.71%
11,CSc1ccccc1-c1nnc(NC(=O)c2ccc3c(c2)OCCO3)o1,inactive: -21.8%
12,Cc1c(C(=O)N2CCCCCC2)c(S(=O)(=O)NCc2ccccc2)c(C)n1C,inactive: -15.3%
13,Oc1ccc(-c2nc3ccc(Cl)cn3c2Nc2ccc(Cl)cc2)cc1,inactive: 18.4%
14,O=C(c1cc2c(Cl)nc3ccccc3c2s1)N1CCCCC1,inactive: 49.1%
15,Cc1ccc(CNS(=O)(=O)c2cnc(N)nc2)cc1,inactive: -11.3%
16,Cc1ccccc1NC(=O)Cn1nc(-c2ccccc2)nc(Cc2ccccc2)c1=O,inactive: -11.6%
17,COc1ccc(Cn2ccc3nc(C)c(C(=O)NCc4ccc(SC)cc4)cc3c2=O)cc1,inactive: -3.63%
18,CCSC(=N)N,inactive: -0.818%
19,CCc1ccc2ncc3c(-c4ccc(C)cc4)nn(CC(=O)NCc4ccccc4)c3c2c1,inactive: 3.11%
20,COc1ccc(CNC(=O)CSc2nnc(C)c3c(C)n(-c4ccccc4)nc23)c(OC)c1,inactive: -12.9%
21,O=C(CSc1nc2ccccc2n1Cc1cccc(F)c1)NCc1ccccc1,inactive: -25.7%

row,SMILES,activation
1,COc1ccc(-c2nc3sc(CCNC(=O)C(=O)Nc4ccc(OC)c(OC)c4)c(C)n3n2)cc1,inactive: -3.11%
2,COc1ccc(Br)cc1Cn1nnc(C(=O)Nc2cccc(SC)c2)c1N,inactive: -4.54%
3,Cc1ccccc1Cn1c2ccccc2c2cnn(CC(=O)NC3CCCCCC3)c(=O)c21,inactive: -6.7%
4,CC(C)CCNC(=O)Cn1nc(N2CCN(c3ccccc3)CC2)ccc1=O,inactive: -16.3%
5,CCOC(=O)c1sc2ncn(CC(=O)Nc3ccc(OC)c(Cl)c3)c(=O)c2c1C,inactive: -0.158%
6,CN(CC(=O)Nc1cccc(F)c1)S(=O)(=O)c1ccc2c(c1)n(C)c(=O)c(=O)n2C,inactive: -12.3%
7,Cc1ccc(NC(=O)c2ccc(CN3CC(=O)N4CCCCC4C3=O)cc2)c(Cl)c1 (centres undefined),inactive: -8.29%
8,COc1ccc(OC)c(C2C(C(=O)Nc3ccc(C)cc3)=C(C)Nc3nnnn32)c1 (centres undefined),inactive: -3.75%
9,CN1CCN(C(=O)c2ccc3c(c2)N(Cc2ccc(C(F)(F)F)cc2)C(=O)c2ccccc2S3)CC1,inactive: 3.62%
10,COc1ccc(S(=O)(=O)NCc2nc(-c3ccccc3)no2)cc1,inactive: -20.3%
11,CC(=O)c1cccc(NC(=O)CSc2ncc3c(n2)-c2cc(Cl)ccc2N(Cc2ccccc2)S3(=O)=O)c1,inactive: 9.47%
12,COc1cc(CNC(=O)c2cc3n(n2)CCCN(Cc2cccc(F)c2)C3=O)cc(OC)c1OC,inactive: -1.89%
13,O=C(CC(c1cccs1)N1Cc2ccccc2C1=O)Nc1ccc(F)cc1 (centres undefined),inactive: -2.73%
14,CSc1cccc(NC(=O)c2cc3c(COC(C)=O)cnc(C)c3oc2=O)c1,inactive: -10%
15,Cc1ccc(-n2ncc(C(=O)NCc3ccc4c(c3)OCO4)c2C2CCN(C(=O)OC(C)(C)C)CC2)c(C)c1,inactive: -64.5%
16,COc1ccc(CCNC(=O)CSc2cn(CCNC(=O)c3c(F)cccc3F)c3ccccc23)cc1OC,inactive: 37.3%
17,CN(C)c1ccc(NC(=O)Cn2c(SCc3ccc(F)cc3)nc3ccncc32)cc1,inactive: -19.2%
18,CC(=O)Nc1ccc(NS(=O)(=O)c2c(C(=O)N3CCCCCC3)c(C)n(C)c2C)cc1,inactive: -0.914%
19,COC(=O)c1ccc(NC(=O)c2cc(S(=O)(=O)N3CCOCC3)cn2C)cc1,inactive: 0.71%
20,Cc1ccccc1OCC(=O)Nc1ccc(S(=O)(=O)N(Cc2ccccc2)c2ccccc2)cc1,inactive: -5.37%
21,COc1ccc(Cn2c(=O)c3oc4ccccc4c3n(CC(=O)Nc3c(C)cccc3C)c2=O)cc1,inactive: -5.25%

row,SMILES,activation
1,Cc1ccc(C(=O)COC(=O)CCC(=O)Nc2ccc(Oc3ccccc3)cc2)cc1,inactive: -12.2%
2,COc1ccc(-c2nc3c(c(SCc4ccc(Br)cc4)n2)Cc2c(CO)cnc(C)c2O3)cc1,inactive: 27.3%
3,Cc1ccc(OCCSc2nnc(-c3cccs3)o2)cc1,inactive: -1.23%
4,Cc1oc2cc3oc(=O)c(CCC(=O)NCCc4ccccc4F)c(C)c3cc2c1C,inactive: -14.5%
5,CCC(=O)N1c2ccccc2CC1C(=O)NCc1ccc(CC)cc1 (centres undefined),inactive: 5.55%
6,CN1CCN(C(=O)c2cnn(-c3ccc(F)cc3F)c2C2CCN(C(=O)OC(C)(C)C)CC2)CC1,inactive: -10%
7,COc1ccc(NC(=O)Nc2nnc(N3CCCC3)s2)cc1,inactive: -7.35%
8,Cc1ccc2c(c1)c1c(c(=O)n(-c3ccccc3)c(=O)n1Cc1ccccc1C)n2C,inactive: 5.72%
9,Cc1cc(C)cc(N(CC(=O)NCCc2ccc(Cl)cc2)S(=O)(=O)c2c(C)noc2C)c1,inactive: -3.03%
10,Cc1ccc(NC(=O)c2c(C)oc3ccc(O)c(CN4CCOCC4)c23)cc1,inactive: 6.25%
11,CC(=O)c1ccc(S(=O)(=O)NC(=O)NC2CCCCC2)cc1,inactive: 1.33% and inactive: -0.322%
12,Cc1ccc2c(=O)cc(C(=O)N(Cc3ccc(C(C)(C)C)cc3)C3CCS(=O)(=O)C3)oc2c1 (centres undefined),inactive: -2.51%
13,CCC(=O)N1CCN(C(=O)c2ccccc2)CC1,inactive: -1.9%
14,CC(=O)N1CCCC1c1nc2ccccc2n1Cc1cccc(C)c1 (centres undefined),inactive: -4.46%
15,COc1ccc(OCC(=O)NCc2ccc3c(c2)CCN3C(=O)c2cccc(C)c2)cc1,inactive: -4.27%
16,COc1ccc2c(c1)c(CC(=O)Nc1c(C)cccc1C)c(C)n2C(=O)c1ccc(Cl)cc1,inactive: 14.7%
17,CSc1ccc(CCNC(=O)c2ccc(-n3c(C)cc4c3CCC(C)C4)cc2)cc1 (centres undefined),inactive: -1.65%
18,Cc1cc(C)cc(NC(=O)CCn2cnc3ccccc3c2=O)c1,inactive: 4.32%
19,CCOc1ccccc1NC(=O)Cn1c(=O)n(-c2ccc(C)cc2)c(=O)c2c1cnn2C,inactive: 19.3%
20,CCc1cccc(NC(=O)CC(c2ccc(OC)cc2)N2Cc3ccccc3C2=O)c1 (centres undefined),inactive: -18%
21,CC(C)c1ccc(C2NC(=O)c3c(sc4c3CCN(C)C4)N2)cc1 (centres undefined),inactive: -16.5%

row,SMILES,activation
1,CCOc1ccc(N(CC(=O)OC)S(=O)(=O)c2ccc3c(c2)n(C)c(=O)c(=O)n3C)cc1,inactive: -5.1%
2,CCC(C)NC(=O)Cn1c(=O)n(-c2ccc(Cl)cc2)c(=O)c2c3c(sc21)CCCC3 (centres undefined),inactive: -9.23%
3,Cc1ccc(-n2nnnc2SCC(=O)NCCc2ccccc2)cc1C,inactive: 20.6%
4,CCCCC(=O)OC1=CN(Cc2ccccc2)S(=O)(=O)c2ccccc21,inactive: -22.1%
5,Cc1ccc(C)c(N2CCN(C(=O)c3c(C)oc4nc(C)nc(N5CCOCC5)c34)CC2)c1,inactive: -17.1%
6,CCc1nnc(NC(=O)CSc2nccn2Cc2ccc(Cl)cc2)s1,inactive: 13.2%
7,CCCc1nnc(SCc2cc(=O)c3c(C)cc(C)cc3[nH]2)n1C,inactive: -10.2%
8,C=CCC(CC=C)(CNC(=O)C(=O)Nc1ccc(Br)cc1)c1ccc(OC)c(OC)c1,inactive: -3.56%
9,CCCN[C@H]1CCc2nc(N)sc2C1,inactive: 3.36%
10,Cc1ccc(OCCCn2c(-c3ccc(Cl)cc3)nc3ccccc3c2=O)cc1C,inactive: -3.22%
11,O=C(NCC(c1ccc2c(c1)OCO2)N1CCN(c2ccccc2)CC1)c1ccc(F)c(F)c1 (centres undefined),inactive: -20.2%
12,O=C(Nc1ccc(F)cc1F)C1CCN(C(=O)c2cnn(-c3ccccc3)c2-n2cccc2)CC1,inactive: 11.7%
13,O=C(NCc1cccc(Cl)c1)c1cnc(N2CCOCC2)c2ccccc12,inactive: -20.2%
14,Cn1cccc1-c1cc2n(n1)CCC(=O)N2CCCC(=O)NCc1cccc(Cl)c1,inactive: 2.16%
15,CCOc1ccc(NS(=O)(=O)c2c(C)nc3sc(CC)nn3c2=O)cc1,inactive: 12%
16,COCCNC(=O)c1ccc2c(c1)ncn2-c1cc(C)ccc1OC,inactive: 3.17%
17,CCc1ccc(CNC(=O)Cn2nc(C)c3nn(-c4ccc(Cl)cc4)c(C)c3c2=O)cc1,inactive: -11.1%
18,COc1cc(NC(=O)Cc2noc3ccccc23)cc(OC)c1OC,inactive: -18.5%
19,O=C(CN1C(=O)COc2ccc(S(=O)(=O)N3CCCCCC3)cc21)N1CCN(c2ccc(Cl)cc2)CC1,inactive: 0.778%
20,CCOC(=O)c1ccc(NC(=O)CC(C)n2nc(C)cc2C)cc1 (centres undefined),inactive: -3.49%
21,Cc1ccc(C)c(Nc2nn3c(=O)c4ccc(C(=O)NCc5ccccc5)cc4nc3s2)c1,active: 63.1%
